In paper PMC11394198:
These are yes or no findings as the source states them, for the method shown. For some of these results: Binding seen in cells or lysates may run through a third protein. Some results given as binding are weak or reduced against the parent protein; the word gives no strength. Tags and fused reporters may be left off the sequences shown. Each block holds one molecule with its values, some of them ahead of it.

The chains behind the UniProt entries cited, without tags or fusion partners.
UniProt Q94BT6: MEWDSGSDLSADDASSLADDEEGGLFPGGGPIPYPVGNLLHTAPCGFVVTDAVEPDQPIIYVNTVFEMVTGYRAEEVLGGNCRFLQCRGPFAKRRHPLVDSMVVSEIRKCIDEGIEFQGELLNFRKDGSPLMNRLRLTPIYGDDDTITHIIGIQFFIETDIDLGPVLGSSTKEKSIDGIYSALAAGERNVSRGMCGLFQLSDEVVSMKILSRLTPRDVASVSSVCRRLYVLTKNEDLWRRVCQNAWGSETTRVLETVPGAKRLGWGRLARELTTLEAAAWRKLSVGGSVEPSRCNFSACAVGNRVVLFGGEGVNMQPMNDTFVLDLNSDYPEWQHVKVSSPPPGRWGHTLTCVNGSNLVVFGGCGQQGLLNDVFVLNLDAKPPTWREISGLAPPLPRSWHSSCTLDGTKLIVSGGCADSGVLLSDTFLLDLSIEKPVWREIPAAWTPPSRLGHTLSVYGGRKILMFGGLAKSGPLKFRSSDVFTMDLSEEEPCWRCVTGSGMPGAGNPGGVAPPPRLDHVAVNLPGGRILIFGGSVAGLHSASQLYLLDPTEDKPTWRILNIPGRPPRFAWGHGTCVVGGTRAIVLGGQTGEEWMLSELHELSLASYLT
UniProt P92973: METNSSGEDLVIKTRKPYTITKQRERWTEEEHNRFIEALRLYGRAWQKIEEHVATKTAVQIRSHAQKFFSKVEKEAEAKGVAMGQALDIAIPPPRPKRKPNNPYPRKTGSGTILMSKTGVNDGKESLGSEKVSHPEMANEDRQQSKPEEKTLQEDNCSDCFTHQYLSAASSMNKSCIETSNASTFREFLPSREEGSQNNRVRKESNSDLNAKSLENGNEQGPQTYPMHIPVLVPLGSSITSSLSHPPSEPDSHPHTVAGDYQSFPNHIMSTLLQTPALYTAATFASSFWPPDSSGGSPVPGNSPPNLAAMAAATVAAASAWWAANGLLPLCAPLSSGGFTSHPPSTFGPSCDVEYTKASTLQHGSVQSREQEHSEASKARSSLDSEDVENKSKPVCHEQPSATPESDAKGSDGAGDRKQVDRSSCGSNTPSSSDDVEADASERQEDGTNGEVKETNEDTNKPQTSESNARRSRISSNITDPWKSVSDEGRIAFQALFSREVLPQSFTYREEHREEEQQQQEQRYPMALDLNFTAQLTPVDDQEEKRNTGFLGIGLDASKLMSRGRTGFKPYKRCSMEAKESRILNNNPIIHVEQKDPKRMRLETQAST

Columns and labels:
[1] = target: T1, LIGHT … PERIOD 1 (LIP1), full-length, GAL4 fusion (Arabidopsis thaliana) (UniProt Q9C5J9); assay: two-hybrid; GAL4-based yeast two-hybrid, pGADT7-pGBKT7 pairs co-transformed in PJ69-4A, either (AD and BD) configuration; growth on Ade-/Leu-/Trp- SD plates at 30 °C and β-galactosidase activity (ONPG) of liquid cultures
T1 sequence: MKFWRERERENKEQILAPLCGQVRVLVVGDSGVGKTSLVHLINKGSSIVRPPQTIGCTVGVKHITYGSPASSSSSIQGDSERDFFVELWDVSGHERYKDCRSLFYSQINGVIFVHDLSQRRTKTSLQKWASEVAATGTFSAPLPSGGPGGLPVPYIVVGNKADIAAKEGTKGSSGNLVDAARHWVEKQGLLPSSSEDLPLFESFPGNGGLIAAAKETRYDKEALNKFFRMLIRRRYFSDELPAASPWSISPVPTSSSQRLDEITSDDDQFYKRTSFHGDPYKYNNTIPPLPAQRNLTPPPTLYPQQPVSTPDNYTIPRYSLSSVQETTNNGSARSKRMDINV

[2] = target: T2, TIMING OF CAB EXPRESSION 1 (TOC1), full-length, GAL4 fusion (Arabidopsis thaliana) (UniProt Q9LKL2); assay: as above
T2 sequence: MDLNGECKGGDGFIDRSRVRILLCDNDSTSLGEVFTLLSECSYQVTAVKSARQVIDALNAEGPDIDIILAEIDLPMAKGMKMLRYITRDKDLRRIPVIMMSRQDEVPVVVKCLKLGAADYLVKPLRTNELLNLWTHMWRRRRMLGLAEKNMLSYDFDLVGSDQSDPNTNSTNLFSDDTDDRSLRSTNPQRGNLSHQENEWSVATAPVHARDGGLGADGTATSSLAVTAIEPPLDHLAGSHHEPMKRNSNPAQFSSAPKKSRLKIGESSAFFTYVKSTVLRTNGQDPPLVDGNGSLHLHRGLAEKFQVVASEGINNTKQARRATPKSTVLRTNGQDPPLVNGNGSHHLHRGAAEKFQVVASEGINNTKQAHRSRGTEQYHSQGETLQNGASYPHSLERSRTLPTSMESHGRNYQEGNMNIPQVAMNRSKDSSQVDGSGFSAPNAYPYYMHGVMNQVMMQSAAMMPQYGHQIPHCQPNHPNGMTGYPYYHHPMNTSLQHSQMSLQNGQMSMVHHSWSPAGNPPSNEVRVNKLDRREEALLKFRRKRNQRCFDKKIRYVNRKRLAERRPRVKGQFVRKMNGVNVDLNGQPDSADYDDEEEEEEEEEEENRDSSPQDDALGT

[3] = target: ZEITLUPE (ZTL), full-length, GAL4 fusion (Arabidopsis thaliana) (UniProt Q94BT6); assay: as above
[4] = target: T3, GIGANTEA (GI), full-length, GAL4 fusion (Arabidopsis thaliana) (UniProt Q9SQI2); assay: as above
T3 sequence: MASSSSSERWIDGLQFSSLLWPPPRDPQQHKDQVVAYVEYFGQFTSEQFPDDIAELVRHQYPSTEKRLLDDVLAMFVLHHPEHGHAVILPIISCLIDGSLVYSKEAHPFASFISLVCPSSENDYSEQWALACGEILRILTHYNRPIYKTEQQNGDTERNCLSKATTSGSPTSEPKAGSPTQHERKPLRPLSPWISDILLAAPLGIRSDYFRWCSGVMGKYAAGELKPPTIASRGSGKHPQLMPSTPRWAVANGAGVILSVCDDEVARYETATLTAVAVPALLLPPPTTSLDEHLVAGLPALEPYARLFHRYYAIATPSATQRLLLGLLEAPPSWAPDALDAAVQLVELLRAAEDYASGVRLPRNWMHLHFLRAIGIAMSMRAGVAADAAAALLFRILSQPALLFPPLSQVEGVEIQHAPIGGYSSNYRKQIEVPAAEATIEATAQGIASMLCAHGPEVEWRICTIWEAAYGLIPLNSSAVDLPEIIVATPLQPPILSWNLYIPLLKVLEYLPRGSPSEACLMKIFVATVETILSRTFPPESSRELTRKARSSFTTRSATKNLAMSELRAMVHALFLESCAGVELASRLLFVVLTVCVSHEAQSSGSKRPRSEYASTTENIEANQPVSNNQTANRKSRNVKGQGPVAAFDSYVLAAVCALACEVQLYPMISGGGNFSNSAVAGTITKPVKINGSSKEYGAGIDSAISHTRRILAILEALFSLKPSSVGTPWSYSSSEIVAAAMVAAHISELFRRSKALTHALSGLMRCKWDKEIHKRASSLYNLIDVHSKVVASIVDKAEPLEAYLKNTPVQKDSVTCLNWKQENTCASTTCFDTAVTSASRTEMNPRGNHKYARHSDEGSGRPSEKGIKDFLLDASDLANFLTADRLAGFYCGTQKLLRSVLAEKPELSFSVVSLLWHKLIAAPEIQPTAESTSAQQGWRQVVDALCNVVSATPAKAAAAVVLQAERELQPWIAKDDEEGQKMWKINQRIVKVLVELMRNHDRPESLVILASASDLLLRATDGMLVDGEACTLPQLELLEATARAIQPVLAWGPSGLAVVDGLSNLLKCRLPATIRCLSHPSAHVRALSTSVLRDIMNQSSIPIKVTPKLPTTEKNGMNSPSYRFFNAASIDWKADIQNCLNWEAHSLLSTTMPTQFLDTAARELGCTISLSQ

[5] = target: … CLOCK ASSOCIATED 1 (CCA1), GAL4 fusion (Arabidopsis thaliana) (UniProt P92973); assay: as above
[6] = target: T4, LIP1 fused to the N- or C-terminal fragment of firefly luciferase (Arabidopsis thaliana) (UniProt Q9C5J9); assay: split reporter; luciferase complementation: LIP1 or GEF7 fused to nLUC or cLUC in either configuration, coexpressed in E. coli BL21 Rosetta cells; luminescence of freshly grown bacterial cultures
T4 sequence: T1 sequence

binding [1]: no binding
binding [2]: binds
Molecule: ZEITLUPE (ZTL), full-length, GAL4 fusion (from UniProt Q94BT6 1-609)

binding [1]: no binding
B1: LUX ARRHYTHMO (LUX), GAL4 fusion (protein, UniProt Q9SNB4 1-323)
chain: MGEEVQMSDYDVSGDGDRVSEWEMGLPSDEDLASLSYSLIPPNLAMAFSITPERSRTIQDVNRASETTLSSLRGGSSGPNTSSSNNNVEEEDRVGSSSPGSDSKKQKTSNGDGDDGGGVDPDSAMAAEEGDSGTEDLSGKTLKRPRLVWTPQLHKRFVDVVAHLGIKNAVPKTIMQLMNVEGLTRENVASHLQKYRLYLKRMQGLTNEGPSASDKLFSSTPVPPQSFQDIGGGGGSSGNVGVPIPGAYGTQQMMQMPVYAHHMGMQGYHHQNHNHDPYHQNHRHHHGAGGNGAFESNPYMMQQNKFGSMASYPSVGGGSANEN

binding [1]: no binding
B3: PSEUDO-RESPONSE REGULATOR 9 (PRR9), GAL4 fusion (protein, UniProt Q8L500 1-468)
chain: MGEIVVLSSDDGMETIKNRVKSSEVVQWEKYLPKTVLRVLLVESDYSTRQIITALLRKCCYKVVAVSDGLAAWEVLKEKSHNIDLILTELDLPSISGFALLALVMEHEACKNIPVIMMSSQDSIKMVLKCMLRGAADYLIKPMRKNELKNLWQHVWRRLTLRDDPTAHAQSLPASQHNLEDTDETCEDSRYHSDQGSGAQAINYNGHNKLMENGKSVDERDEFKETFDVTMDLIGGIDKRPDSIYKDKSRDECVGPELGLSLKRSCSVSFENQDESKHQKLSLSDASAFSRFEESKSAEKAVVALEESTSGEPKTPTESHEKLRKVTSDQGSATTSSNQENIGSSSVSFRNQVLQSTVTNQKQDSPIPVESNREKAASKEVEAGSQSTNEGIAGQSSSTEKPKEEESAKQRWSRSQREAALMKFRLKRKDRCFDKKVRYQSRKKLAEQRPRVKGQFVRTVNSDASTKS

binding [1]: binds
binding [2]: binds
binding [4]: binds
binding [3]: binds
binding [5]: no binding
B4: ROP (RHO OF PLANTS) GUANINE NUCLEOTIDE EXCHANGE FACTOR 7, full-length, GAL4 fusion (protein, UniProt Q9LZN0 1-546)
chain: MDGSSENLPEVEEKGRESSCCSSETTRQEEEEQSPSCTEDFTASPVSSRWSVKNIDGEKKKIRSDSRVSEVEMMKERFSKLLLGEDMSGSGNGVCTALAISNAITNLCATLFGQLWRLEPLPTEKKEMWRREMEWLLCVSDHIVEMTPTWQTFPDGTKLEIMTCRPRSDLYVNLPALRKLDNMLLEILDSFEETEFWYVDQGIMAHESAADGSSSFRKSFQRQEDKWWLPVPRVSPGGLQENSRKQLQHKRDCTNQILKAAMAINSITLADMEIPESYLESLPRKGRSCLGDLIYRYISSDQFSPECLLDCLDLSSEHQAIEIANRVESSIYLWHKRTNSKPATNTKTSWEMVKELMVDADKLELMADRAESLLLSLKQRFPGLPQTALDMSKIQYNKDIGKSILESYSRVLESLAFNIVARIDDLLFVDDLTRHSSDQIPTTLGNNGNDAPKSIAVPVSNYTTPSYSPSKQELRSSITVPPSPSRFKIPHSSSVKRVLTAYVTKNEPRLKNLPLERSSRSSSSERLSLEKCMKESLNVSNLDPGI

Further lines, the molecule ahead of its results:

B2: GIGANTEA (GI), full-length, GAL4 fusion (protein, UniProt Q9SQI2 1-1173)
chain: T3 sequence
binding [1]: no binding
binding [2]: binds
binding [3]: binds

B5: GEF7 fused to the N- or C-terminal fragment of firefly luciferase (protein, UniProt Q9LZN0 1-546)
chain: B4 chain
binding [6]: binds
